Assay results from PMC4336329 (PLoS ONE, 2015).
The whole screen tested about 310,000 compounds, of which about 14,000 (4.5%) showed an effect of 50% or more. The effect is printed as a negative number. The list shows a part of the results.

target: human ether-à-go-go-related gene (hERG) potassium channel (human, UniProt Q12809); assay: primary screen, population patch clamp on CHO cells stably expressing hERG
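Also: peak tail current of the secondary pulse compared with the same well before compound.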

Sequence of human ether-à-go-go-related gene (hERG) potassium channel (Q12809 whole entry, looked up): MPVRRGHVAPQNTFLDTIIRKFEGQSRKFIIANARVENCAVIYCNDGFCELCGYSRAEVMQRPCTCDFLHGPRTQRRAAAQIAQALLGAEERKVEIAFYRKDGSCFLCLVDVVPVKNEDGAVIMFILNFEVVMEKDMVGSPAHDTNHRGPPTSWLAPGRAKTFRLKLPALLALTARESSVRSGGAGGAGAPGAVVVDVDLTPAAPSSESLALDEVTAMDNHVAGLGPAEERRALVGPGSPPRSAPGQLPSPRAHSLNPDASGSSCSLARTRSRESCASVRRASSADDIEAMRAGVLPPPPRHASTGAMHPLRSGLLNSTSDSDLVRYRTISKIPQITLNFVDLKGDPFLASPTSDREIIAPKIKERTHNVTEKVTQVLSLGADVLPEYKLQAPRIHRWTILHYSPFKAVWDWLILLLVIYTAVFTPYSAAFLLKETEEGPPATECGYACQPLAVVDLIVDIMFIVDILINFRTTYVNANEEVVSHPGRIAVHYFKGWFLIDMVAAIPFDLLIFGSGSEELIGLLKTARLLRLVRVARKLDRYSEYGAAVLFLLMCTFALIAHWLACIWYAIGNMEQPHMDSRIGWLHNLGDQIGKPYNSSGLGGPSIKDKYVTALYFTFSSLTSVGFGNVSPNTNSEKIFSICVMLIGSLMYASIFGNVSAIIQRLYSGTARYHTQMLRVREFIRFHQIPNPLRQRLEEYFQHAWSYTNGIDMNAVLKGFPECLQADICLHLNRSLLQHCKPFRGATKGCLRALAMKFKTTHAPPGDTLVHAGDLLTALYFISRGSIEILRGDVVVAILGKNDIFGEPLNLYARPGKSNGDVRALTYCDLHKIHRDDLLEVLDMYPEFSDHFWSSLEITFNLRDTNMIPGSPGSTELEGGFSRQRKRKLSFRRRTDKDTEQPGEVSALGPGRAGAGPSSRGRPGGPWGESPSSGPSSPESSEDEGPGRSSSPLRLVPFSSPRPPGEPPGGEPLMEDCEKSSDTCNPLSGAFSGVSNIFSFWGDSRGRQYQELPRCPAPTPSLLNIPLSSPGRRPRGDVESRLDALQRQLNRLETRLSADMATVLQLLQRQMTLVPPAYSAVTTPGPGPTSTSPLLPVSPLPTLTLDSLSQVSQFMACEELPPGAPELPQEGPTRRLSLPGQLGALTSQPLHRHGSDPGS

SMILES | hERG current change (%, negative = inhibition) at 10uM [%]
O=C(COc1ccccc1)N1CCCCCCC1 | 3.25
Cc1nnc(SCc2ccc3c(c2)OCO3)s1 | -12.7
O=C(O)C(=O)O.OCCN1CCN(c2cc(-c3ccccc3)c3ccccc3n2)CC1 | -63.3
COc1cc(C(=O)Nc2ccc3c(c2)OCCO3)ccc1OC(C)C | -16.8
CC(C(=O)OCC(=O)c1ccc(Br)cc1)N1C(=O)C2C3CCC(C3)C2C1=O (stereo not drawn) | -40.4
NC(=O)c1ccc(NC(=S)NCc2ccco2)cc1 | 5.61
Cl.OC(CN1CC=C(/C=C/c2ccc(Br)cc2)CC1)c1ccccc1 (stereo not drawn) | -2.33
O=c1c2cc(-c3ccccc3)sc2ncn1-n1cccc1 | 3.9
COc1ccc(-n2cc(CNCc3cnc4ccccn34)c(-c3cccc(F)c3)n2)cc1 | -30.2
O=C(CCl)N(Cc1ccccc1)c1ccccc1 | 3.18
CCN1CCCC1Cn1cnc2c([nH]c3ccc(C)cc32)c1=O (stereo not drawn) | -70
CN(CC(=O)Nc1ccccc1Cl)C(=O)c1cccc(S(=O)(=O)N2CCN(Cc3ccccc3)CC2)c1 | -9.44
Cc1ccc(C)c(N2CCN(C(=O)c3cc(S(=O)(=O)N4CCCC4)cn3C)CC2)c1 | -15.2
CCc1nc2nc(C)c(NS(=O)(=O)c3ccc(C)c(C)c3)c(=O)n2[nH]1 | 6.32
CCN(CC)S(=O)(=O)c1cc(NC(=O)Cn2ncc(Cl)c(Cl)c2=O)ccc1C | -29.4
COc1ccc2cc(Br)ccc2c1CC(=O)NCCCN1CCOCC1 | -20.7
CCC(C)NS(=O)(=O)c1ccc(-c2csnn2)s1 (stereo not drawn) | -8.46
Cc1cc(Cl)ccc1OCCCC(=O)N1CCCCC1 | -14.2
CCCOc1ccc(C(=O)NCCC(=O)NCCCC(=O)OCC)cc1 | -10

SMILES | hERG current change (%, negative = inhibition) at 10uM [%]
CCOCc1c(C(=O)OCC(=O)Nc2ccccc2C(N)=O)oc2ccccc12 | -11.8
COc1cccc(/C=N/NC(=O)C(=O)N2CCCC2)c1OC | 13.7
Cc1ccc(C(=O)/C=C/c2ccc3ncccc3c2)cc1 | -2.43
Fc1ccccc1-c1cc2ccccc2cn1 | -7.07
CCOC(=O)Cc1nnc(NC(=O)CSc2ncc(-c3ccccc3)nn2)s1 | -58.7
O=C1CSC(c2ccccc2F)N1c1ccccc1F (stereo not drawn) | 9.77
CCC(C)(C)NC(=O)c1ccc(S(=O)(=O)N(C)c2ccccc2OC)cc1 | 1.3
Nc1cc(N2CCNCC2)ccc1[N+](=O)[O-] | -2.54
C=CCNC(=O)N1CCC(c2nc3ccccc3s2)CC1 | 10.5
CN1C(=O)C(CC(=O)Nc2ccc(F)cc2)N(CCCc2ccccc2)C1=S (stereo not drawn) | 0.0595
C/C(=N\NC(=O)COc1ccccc1)c1cccs1 | 0.14
Cc1ccc2c(c1)COc1c3ccc(C(=O)O)cc3nn1-2 | 5.07
COc1ccccc1OCCn1c(=O)sc2ccccc21 | 30
CCC(Sc1nc2n[nH]c(C)c2c(=N)n1-c1cccc(Cl)c1C)C(=O)N(CC)CC (stereo not drawn) | -4.52
Cn1ncc(Cl)c(Oc2ccccc2)c1=O | 10.2
O=C(CN1CCN(CC(=O)Nc2ccccc2F)CC1)Nc1ccc2c(c1)OCCO2 | -71.2
COc1ccc2oc(C(=O)OCc3nnc(-c4ccccc4)o3)c(C)c2c1 | 19.8
Cc1nnc2c(NCC(C)c3ccccc3)nc3ccccc3n12 (stereo not drawn) | -2.36
COc1ccc(-c2csc(N3CCN(c4cc5c(cc4Cl)nc(-c4ccncc4)n5CCOCCO)CC3)n2)cc1 | 12.6

SMILES | hERG current change (%, negative = inhibition) at 10uM [%]
Cc1ccc(C(=O)N2CCC3(CC2)Oc2ccc(Cl)cc2C(=O)C32CC(c3ccccc3)=NO2)s1 (stereo not drawn) | 12.4
O=C(NC(=S)NCCN1CCOCC1)c1cccc(Cl)c1 | -16.9
CCn1c(-c2nonc2NC(=O)c2ccccc2)nc2ccccc21 | 0.625
CCOC(=O)NNC1CC(=O)N(c2ccccc2)C1=O (stereo not drawn) | 7.81
Fc1ccc(NC(=S)NC23CN4CN(CN(C4)C2)C3)cc1 | 2.87
CCOC(=O)CN(C(=O)CSc1nnc2c(n1)[nH]c1ccc(F)cc12)c1ccccc1 | -19.9
Cc1ccc(C)c(S(=O)(=O)N2CCN(C(C(=O)Nc3ccc(F)cc3)c3ccccc3)CC2)c1 (stereo not drawn) | 7.1
COc1ccc(C(=O)Nc2ccc(N3CCN(c4ccc(OC)cc4)CC3)c(C#N)c2)cc1 | 9.76
COc1ccc(OCC(=O)Nn2c(-c3cccc(OC)c3)nc3ccccc3c2=O)cc1 | -24.1
Cc1cc(C)cc(NC(=O)NCc2ccccn2)c1 | 17.1
CN(CC(=O)Nc1ccc(Cl)c(C(F)(F)F)c1)C(=O)CCN1C(=O)C2CC=CCC2C1=O (stereo not drawn) | -37.2
O=C(O)c1ccc(N/N=C/c2c(F)cccc2Cl)cc1 | 18.6
CCNC(=S)N/N=C/c1ccc(OCCOc2ccccc2C)cc1 | 1.5
CN(C)C(=O)Oc1c(Cl)cc(Cl)c2ccccc12 | -36.2
O=C(CCS(=O)(=O)c1ccc(Br)cc1)N1CCN(Cc2ccccc2)CC1 | -27
Cc1ccc(C(=O)c2sc(Nc3ccccc3)c(C#N)c2N)cc1 | 32.5
O=C(NCC1CCOCC1)c1cc(COc2cccc(C(F)(F)F)c2)on1 | -25.1
Cc1ccc2c(c1)C(O)(CC(=O)c1cccnc1)C(=O)N2 (stereo not drawn) | -7.87
COc1ccc(CSC(=N)N)cc1[N+](=O)[O-].Cl | -3.72
